Measurements published in PubChem BioAssay AID1345083 (National Center for Advancing Translational Sciences (NCATS), 2018).
The campaign covered roughly 94,000 compounds. About 6,200 (6.6%) were called active. The shares of active, inactive and inconclusive entries below differ from those in the screen. Calls come from the whole dose curve; as a rule, active = well fitted inhibition curve with a large enough effect; inconclusive = small, poorly fitted or top-dose-only effect; inactive = flat fitted curve, though single readings scatter. Potencies of inconclusive entries are doubtful fits and often do not repeat.

Experiment: Cytotoxic Profiling in HEK 293 Cell Line of Diverse Libraries Using Quantitative High-Throughput Screening; note: nearly all actives have a fitted effect of over 60% in size
Conditions: HEK 293 viability, ATP luminescence (CellTiter-Glo), 48-72 h; activity change, negative = cytotoxicity: at 115 µM (top of the series) unless noted; series mostly up to 115 µM
Outline: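 HEK 293 cells seeded at 250 cells/well were exposed to compound for 48 or 72 hr at 37 degree Celsius. Viability taken as ATP content by CellTiter-Glo luminescence.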
% is set by controls: 0 for no effect and ±100 for the full control effect; potency is the fitted concentration of half-maximal effect; tags give direction and shape of the fitted curve.

With Nc1ncc(-c2ccc(-c3cc(NC4CCCC4)nc4[nH]ccc34)cc2)[nH]1 as the compound, how does the “activity change, negative = cytotoxicity” value read?
Its value is inactive: -28.4%.

Which Potency does the source give for CN(CC(=O)N1CCCC(CCc2ccc(F)cc2)C1)C1CCNCC1 (centres undefined) here?
Its Potency is inconclusive: 44.7 µM [inhibitor, partial curve, poor fit].

With CN(C)c1ccc(CN2CCNc3cc(Nc4cccnc4)ncc3C2)cc1 as the compound, how does the Potency read?
The Potency was inconclusive: 17.8 µM [inhibitor, full curve].

Which Potency does the source give for COCCNc1cc(-c2ccc(Cl)cc2)nc2c(C)noc12 here?
Its Potency is inconclusive: 100 µM [inhibitor, partial curve].

For N#Cc1ccccc1S(=O)(=O)N[C@H]1CO[C@H]2[C@@H]1OC[C@H]2OC(=O)Nc1ccc(Oc2ccccc2)cc1, which Potency is on record?
Its Potency is inconclusive: 25.1 µM [inhibitor, partial curve, poor fit].

With CCOc1ccccc1N1CCN(C(=O)[C@H]2CCC[C@H]2NC(=O)c2cnc(C)cn2)CC1 as the compound, how does the Potency read?
The Potency was inconclusive: 50.1 µM [inhibitor, partial curve, poor fit].

For CC(C)(Oc1nn(Cc2cccc(Cl)c2)c2ccccc12)C(=O)NCc1ccncc1, which Potency is on record?
Its Potency is inconclusive: 44.7 µM [inhibitor, partial curve, poor fit].

Which Potency does the source give for CCCN1C(=O)CCc2cc(NC(=O)c3ccc(C)cc3)ccc21 here?
The Potency was inconclusive: 35.5 µM [inhibitor, partial curve, poor fit].

With CC(C)CC(=O)N1CC(c2nnc(C(C)C)o2)C2(CCOCC2)C1 (centres undefined) as the compound, how does the “activity change, negative = cytotoxicity” value read?
The value was inactive: -10.8%.

Which “activity change, negative = cytotoxicity” value does the source give for COc1cccc([C@H]2CN(C(=O)CCc3scnc3C)C[C@@H]2N)c1 here?
The value was inactive: -4.72%.

With CC(=O)c1cc(CC(=O)N[C@@H]2COCC[C@@H]2OCc2ccccc2)cs1 as the compound, how does the “activity change, negative = cytotoxicity” value read?
Its value is inactive: 2.9%.

With COc1ccc(CN2CCC3(Cc4ccccc4CNC3=O)C2)cc1OC (centres undefined) as the compound, how does the “activity change, negative = cytotoxicity” value read?
Its value is inactive: -18.4%.

Which “activity change, negative = cytotoxicity” value does the source give for COc1ccc(C(=O)N[C@@H]2CCC[C@@H]2C(=O)NCCN2CCCC2)cc1 here?
Its value is inactive: -13.4%.

Which “activity change, negative = cytotoxicity” value does the source give for O=C(C1CCc2ncc(-c3ccsc3)n2C1)N1CCC(Cc2ccccc2)CC1 (centres undefined) here?
Its value is inactive: -22%.

For O=C1CC2(CCN(CC3CC3)CC2)Oc2ccccc21, which Potency is on record?
The Potency was inconclusive: 126 µM [inhibitor, single point].

For CCOCCCNC(=O)N1CCOc2ccc(CN3CCc4ccccc4C3)cc2C1, which Potency is on record?
Its Potency is inconclusive: 79.4 µM [inhibitor, single point].

With Cc1ccc(C(=O)N2CCCC(n3cc(-c4nc(-c5ccccc5)no4)nn3)C2)s1 (centres undefined) as the compound, how does the Potency read?
The Potency was inconclusive: 50.1 µM [inhibitor, partial curve, poor fit].

For O=C(Nc1ccccc1)N1CCCC(C(=O)N2CCCC(c3nc4ccncc4[nH]3)C2)C1 (centres undefined), which “activity change, negative = cytotoxicity” value is on record?
The value was inactive: 2.54%.

For COc1cccc(-c2ccc(CN3CCCC(NC(=O)c4ccccc4C)C3)cc2)c1 (centres undefined), which Potency is on record?
Its Potency is active: 22.4 µM.
